Test results reported in US20240173442A1, “COMBINATION THERAPY” (Hoffmann-La Roche Inc., priority 2021, published 2024).

B1: P1AD8749: CEA-split-DOTAM-VH hemibody targeting CH1A1A; heavy chains SEQ ID NO: 28 and 32, light chain SEQ ID NO: 34 (antibody)
heavy 1: QVQLVQSGAEVKKPGASVKVSCKASGYTFTEFGMNWVRQAPGQGLEWMGWINTKTGEATYVEEFKGRVTFTTDTSTSTAYMELRSLRSDDTAVYYCARWDFAYYVEAMDYWGQGTTVTVSSASTKGPSVFPLAPSSKSTSGGTAALGCLVKDYFPEPVTVSWNSGALTSGVHTFPAVLQSSGLYSLSSVVTVPSSSLGTQTYICNVNHKPSNTKVDKKVEPKSCDKTHTCPPCPAPEAAGGPSVFLFPPKPKDTLMISRTPEVTCVVVDVSHEDPEVKFNWYVDGVEVHNAKTKPREEQYNSTYRVVSVLTVLHQDWLNGKEYKCKVSNKALGAPIEKTISKAKGQPREPQVCTLPPSRDELTKNQVSLSCAVKGFYPSDIAVEWESNGQPENNYKTTPPVLDSDGSFFLVSKLTVDKSRWQQGNVFSCSVMHEALHNHYTQKSLSLSPG
heavy 2: QVQLVQSGAEVKKPGASVKVSCKASGYTFTEFGMNWVRQAPGQGLEWMGWINTKTGEATYVEEFKGRVTFTTDTSTSTAYMELRSLRSDDTAVYYCARWDFAYYVEAMDYWGQGTTVTVSSASTKGPSVFPLAPSSKSTSGGTAALGCLVKDYFPEPVTVSWNSGALTSGVHTFPAVLQSSGLYSLSSVVTVPSSSLGTQTYICNVNHKPSNTKVDKKV[human IgG1 Fc with changes not listed]GGGGSGGGGSGGGGSGGGGSVTLKESGPVLVKPTETLTLTCTVSGFSLSTYSMSWIRQPPGKALEWLGFIGSRGDTYYASWAKGRLTISKDTSKSQVVLTMTNMDPVDTATYYCARERDPYGGGAYPPHLWGRGTLVTVSS
light: DIQMTQSPSSLSASVGDRVTITCKASAAVGTYVAWYQQKPGKAPKLLIYSASYRKRGVPSRFSGSGSGTDFTLTISSLQPEDFATYYCHQYYTYPLFTFGQGTKLEIKRTVAAPSVFIFPPSDEQLKSGTASVVCLLNNFYPREAKVQWKVDNALQSGNSQESVTEQDSKDSTYSLSSTLTLSKADYEKHKVYACEVTHQGLSSPVTKSFNRGEC
B2: P1AF0712: CEA CH1A1A SPLIT antibody with DOTA-VL; SEQ ID NO: 97, 98, light chain 103 (antibody)
heavy 1: QVQLVQSGAEVKKPGASVKVSCKASGYTFTEFGMNWVRQAPGQGLEWMGWINTKTGEATYVEEFKGRVTFTTDTSTSTAYMELRSLRSDDTAVYYCARWDFAYYVEAMDYWGQGTTVTVSSASTKGPSVFPLAPSSKSTSGGTAALGCLVKDYFPEPVTVSWNSGALTSGVHTFPAVLQSSGLYSLSSVVTVPSSSLGTQTYICNVNHKPSNTKVDKKV[human IgG1 Fc with changes not listed]
heavy 2: QVQLVQSGAEVKKPGASVKVSCKASGYTFTEFGMNWVRQAPGQGLEWMGWINTKTGEATYVEEFKGRVTFTTDTSTSTAYMELRSLRSDDTAVYYCARWDFAYYVEAMDYWGQGTTVTVSSASTKGPSVFPLAPSSKSTSGGTAALGCLVKDYFPEPVTVSWNSGALTSGVHTFPAVLQSSGLYSLSSVVTVPSSSLGTQTYICNVNHKPSNTKVDKKVEPKSCDKTHTCPPCPAPEAAGGPSVFLFPPKPKDTLMISRTPEVTCVVVDVSHEDPEVKFNWYVDGVEVHNAKTKPREEQYNSTYRVVSVLTVLHQDWLNGKEYKCKVSNKALGAPIEKTISKAKGQPREPQVCTLPPSRDELTKNQVSLSCAVKGFYPSDIAVEWESNGQPENNYKTTPPVLDSDGSFFLVSKLTVDKSRWQQGNVFSCSVMHEALHNHYTQKSLSLSPGGGGGSGGGGSGGGGSGGGGSQAVVIQESALTTPPGETVTLTCGSSTGAVTASNYANWVQEKPDHLFTGLIGGHNNRPPGVPARFSGSLIGDKAALTIAGTQTEDEAIYFCALWYSDHWVIGGGTKLTVL
light: DIQMTQSPSSLSASVGDRVTITCKASAAVGTYVAWYQQKPGKAPKLLIYSASYRKRGVPSRFSGSGSGTDFTLTISSLQPEDFATYYCHQYYTYPLFTFGQGTKLEIKRTVAAPSVFIFPPSDEQLKSGTASVVCLLNNFYPREAKVQWKVDNALQSGNSQESVTEQDSKDSTYSLSSTLTLSKADYEKHKVYACEVTHQGLSSPVTKSFNRGEC
B3: P1AD8592: CEA-split-DOTAM-VL hemibody targeting CH1A1A; heavy chains SEQ ID NO: 30 and 33, light chain SEQ ID NO: 34 (antibody)
heavy 1: QVQLVQSGAEVKKPGASVKVSCKASGYTFTEFGMNWVRQAPGQGLEWMGWINTKTGEATYVEEFKGRVTFTTDTSTSTAYMELRSLRSDDTAVYYCARWDFAYYVEAMDYWGQGTTVTVSSASTKGPSVFPLAPSSKSTSGGTAALGCLVKDYFPEPVTVSWNSGALTSGVHTFPAVLQSSGLYSLSSVVTVPSSSLGTQTYICNVNHKPSNTKVDKKV[human IgG1 Fc with changes not listed]
heavy 2: QVQLVQSGAEVKKPGASVKVSCKASGYTFTEFGMNWVRQAPGQGLEWMGWINTKTGEATYVEEFKGRVTFTTDTSTSTAYMELRSLRSDDTAVYYCARWDFAYYVEAMDYWGQGTTVTVSSASTKGPSVFPLAPSSKSTSGGTAALGCLVKDYFPEPVTVSWNSGALTSGVHTFPAVLQSSGLYSLSSVVTVPSSSLGTQTYICNVNHKPSNTKVDKKVEPKSCDKTHTCPPCPAPEAAGGPSVFLFPPKPKDTLMISRTPEVTCVVVDVSHEDPEVKFNWYVDGVEVHNAKTKPREEQYNSTYRVVSVLTVLHQDWLNGKEYKCKVSNKALGAPIEKTISKAKGQPREPQVCTLPPSRDELTKNQVSLSCAVKGFYPSDIAVEWESNGQPENNYKTTPPVLDSDGSFFLVSKLTVDKSRWQQGNVFSCSVMHEALHNHYTQKSLSLSPGGGGGSGGGGSGGGGSGGGGSIQMTQSPSSLSASVGDRVTITCQSSHSVYSDNDLAWYQQKPGKAPKLLIYQASKLASGVPSRFSGSGSGTDFTLTISSLQPEDFATYYCLGGYDDESDTYGFGGGTKVEIK
light: DIQMTQSPSSLSASVGDRVTITCKASAAVGTYVAWYQQKPGKAPKLLIYSASYRKRGVPSRFSGSGSGTDFTLTISSLQPEDFATYYCHQYYTYPLFTFGQGTKLEIKRTVAAPSVFIFPPSDEQLKSGTASVVCLLNNFYPREAKVQWKVDNALQSGNSQESVTEQDSKDSTYSLSSTLTLSKADYEKHKVYACEVTHQGLSSPVTKSFNRGEC

Tests used:
[1] = system: SC BxPC3 tumors; test: Protocol 144: biodistribution of pretargeted 212Pb-DOTAM, 2-step vs 3-step PRIT; type: in vivo, SCID mice; details: 6 hours after ^212Pb-DOTAM injection, ±SD, n=4
Description: All experimental protocols were reviewed and approved by the local authorities (Comité Regional d'Ethique de l'Experimentation Animale du Limousin [CREEAL], Laboratoire Départemental d'Analyses et de Recherches de la Haute-Vienne). Female severe combined immunodeficiency (SCID) mice (Charles River) were maintained under specific and opportunistic pathogen free (SOPF) conditions with daily cycles of light and darkness (12 h/12 h), in line with ethical guidelines. No manipulations were performed during the first 5 days after arrival, to allow the animals to acclimatize to the new environment. Animals were controlled daily for clinical symptoms and detection of adverse events.
Solid xenografts were established by subcutaneous (SC) injection of CEA-expressing tumor cells in cell culture media mixed 1:1 with Corning® Matrigel® basement membrane matrix (growth factor reduced; cat No. 354230). Tumor volumes were estimated through manual calipering 3 times per week, calculated according to the formula: volume 0.5× length×width^2. Additional tumor measurements were made as needed depending on the tumor growth rate. […]

[2] = FACS staining using DOTA-FITC: recruitment of Pb-DOTA-FITC to MKN-45 cells by SPLIT antibodies; type: binding; details: antibodies 10 μg/mL, separate or combined, FIG. 24
Description: MKN-45 cells were detached from the culture bottle using Trypsin and were counted using a Casy cell counter. After pelleting at 4° C., 300 g the cells were resuspended in FACS Buffer (2.5% FCS in PBS), adjusted to 2.0E+06 cells/mL dispensed to 96-well PP V-bottom-Platte (25 μL/well=5.0E+04Zellen/well).
The CEA specific SPLIT antibodies (P1AF0712 or P1AF0713respectively) were adjusted to 40 μg/mL in FACS buffer, resulting in a final concentration of 10 μg/mL. Both antibodies were added to the cells either combined or separated and followed by buffer and incubated at 4° C. for 1 h. Subsequently, Pb-DOTA labeled with FITC was added to the cells in equimolar ratio to the antibodies and incubated for 1 h at 4° C. The cells were then washed twice in FACS buffer and resuspended in 70 μl/well FACS buffer for measurement using a FACS Canto (BD, Pharmingen). […] Only a combination of both SPLIT halves was able to recruit Pb-DOTAM-FITC to the target cells (FIG. 24).
EC50 was determined for the SPLIT antibodies using either secondary antibody based detection, (488, top panel) or Pb-DOTA-FITC (DOTA-FITC, bottom panel)

Row | Molecule | tumor uptake of ^212Pb [1] | fluorescence signal of Pb-DOTA-FITC on MKN-45 cells [2]
1 | B1 | no accumulation of radioactivity in tumors | –
2 | B2 | – | neither of the SPLIT halves was giving rise to a fluorescence signal
3 | B3 | no accumulation of radioactivity in tumors | –
